Paper PMC9911399, “Two distinct binding modes provide the RNA-binding protein RbFox with extraordinary sequence specificity”
Where a chain is given by its changes, count along the chain named. The list shows a part of the results.

T1: RBFOX1 RRM RbFoxmut (Fox-RRM*) (Homo sapiens, UniProt Q9NWB1 109-208, R118D;E147R;N151S;E152T)
T1 sequence: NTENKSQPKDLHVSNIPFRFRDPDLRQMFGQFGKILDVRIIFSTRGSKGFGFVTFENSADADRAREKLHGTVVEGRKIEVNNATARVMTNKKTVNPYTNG

B1: UCUCUAG (DNA:RNA)
RNA: GGGAGACCGGAAUUCAGAUUGUCCUCUCUAGUUAAAUCCCGUCGUAGCCACCA
DNA 1: CAATCTGAATTCCGGTCTCCC
DNA 2: TGGTGGCTACGACGGGATT
B2: UGACUAU (DNA:RNA)
RNA: B1 RNA with C26G, U27A, G31U
DNA 1: CAATCTGAATTCCGGTCTCCC
DNA 2: TGGTGGCTACGACGGGATT
B3: UGAUGGC (DNA:RNA)
RNA: B1 RNA with C26G, U27A, C28U, U29G, A30G, G31C
DNA 1: CAATCTGAATTCCGGTCTCCC
DNA 2: TGGTGGCTACGACGGGATT
B4: CAGUUUA (DNA:RNA)
RNA: B1 RNA with U25C, C26A, U27G, C28U, A30U, G31A
DNA 1: CAATCTGAATTCCGGTCTCCC
DNA 2: TGGTGGCTACGACGGGATT
B5: AGGCGUU (DNA:RNA)
RNA: B1 RNA with U25A, C26G, U27G, U29G, A30U, G31U
DNA 1: CAATCTGAATTCCGGTCTCCC
DNA 2: TGGTGGCTACGACGGGATT
B6: GGGGCCU (DNA:RNA)
RNA: GGGAGACCGGAAUUCAGAUUGUCCGGGGCCUUUAAAUCCCGUCGUAGCCACCA
DNA 1: CAATCTGAATTCCGGTCTCCC
DNA 2: TGGTGGCTACGACGGGATT
B7: CCUAUGA (DNA:RNA)
RNA: B1 RNA with U25C, C28A, A30G, G31A
DNA 1: CAATCTGAATTCCGGTCTCCC
DNA 2: TGGTGGCTACGACGGGATT
B8: AUGGGUC (DNA:RNA)
RNA: B6 RNA with G25A, G26U, C29G, C30U, U31C
DNA 1: CAATCTGAATTCCGGTCTCCC
DNA 2: TGGTGGCTACGACGGGATT
B9: GGGGCGA (DNA:RNA)
RNA: B6 RNA with C30G, U31A
DNA 1: CAATCTGAATTCCGGTCTCCC
DNA 2: TGGTGGCTACGACGGGATT
B10: ACACUGC (DNA:RNA)
RNA: B1 RNA with U25A, U27A, A30G, G31C
DNA 1: CAATCTGAATTCCGGTCTCCC
DNA 2: TGGTGGCTACGACGGGATT
B11: CAAUGGC (DNA:RNA)
RNA: GGGAGACCGGAAUUCAGAUUGUCCCAAUGGCUUAAAUCCCGUCGUAGCCACCA
DNA 1: CAATCTGAATTCCGGTCTCCC
DNA 2: TGGTGGCTACGACGGGATT
B12: CCACCUU (DNA:RNA)
RNA: B11 RNA with A26C, U28C, G29C, G30U, C31U
DNA 1: CAATCTGAATTCCGGTCTCCC
DNA 2: TGGTGGCTACGACGGGATT
B13: CUGAGCC (DNA:RNA)
RNA: B11 RNA with A26U, A27G, U28A, G30C
DNA 1: CAATCTGAATTCCGGTCTCCC
DNA 2: TGGTGGCTACGACGGGATT
B14: CAAUCCG (DNA:RNA)
RNA: B11 RNA with G29C, G30C, C31G
DNA 1: CAATCTGAATTCCGGTCTCCC
DNA 2: TGGTGGCTACGACGGGATT
B15: CCUUUAA (DNA:RNA)
RNA: B1 RNA with U25C, C28U, G31A
DNA 1: CAATCTGAATTCCGGTCTCCC
DNA 2: TGGTGGCTACGACGGGATT
B16: UUGGCUU (DNA:RNA)
RNA: B6 RNA with G25U, G26U, C30U
DNA 1: CAATCTGAATTCCGGTCTCCC
DNA 2: TGGTGGCTACGACGGGATT
B17: GGGACGG (DNA:RNA)
RNA: B6 RNA with G28A, C30G, U31G
DNA 1: CAATCTGAATTCCGGTCTCCC
DNA 2: TGGTGGCTACGACGGGATT
B18: AACUAAG (DNA:RNA)
RNA: B11 RNA with C25A, A27C, G29A, G30A, C31G
DNA 1: CAATCTGAATTCCGGTCTCCC
DNA 2: TGGTGGCTACGACGGGATT
B19: CGACCUU (DNA:RNA)
RNA: B6 RNA with G25C, G27A, G28C, C30U
DNA 1: CAATCTGAATTCCGGTCTCCC
DNA 2: TGGTGGCTACGACGGGATT
B20: AAAUCGG (DNA:RNA)
RNA: B11 RNA with C25A, G29C, C31G
DNA 1: CAATCTGAATTCCGGTCTCCC
DNA 2: TGGTGGCTACGACGGGATT
B21: CGGUUGU (DNA:RNA)
RNA: B11 RNA with A26G, A27G, G29U, C31U
DNA 1: CAATCTGAATTCCGGTCTCCC
DNA 2: TGGTGGCTACGACGGGATT
B22: CCCUGAC (DNA:RNA)
RNA: B11 RNA with A26C, A27C, G30A
DNA 1: CAATCTGAATTCCGGTCTCCC
DNA 2: TGGTGGCTACGACGGGATT
B23: AUUUGAU (DNA:RNA)
RNA: B11 RNA with C25A, A26U, A27U, G30A, C31U
DNA 1: CAATCTGAATTCCGGTCTCCC
DNA 2: TGGTGGCTACGACGGGATT
B24: UCUGCUC (DNA:RNA)
RNA: B1 RNA with C28G, U29C, A30U, G31C
DNA 1: CAATCTGAATTCCGGTCTCCC
DNA 2: TGGTGGCTACGACGGGATT
B25: CGACUCG (DNA:RNA)
RNA: B1 RNA with U25C, C26G, U27A, A30C
DNA 1: CAATCTGAATTCCGGTCTCCC
DNA 2: TGGTGGCTACGACGGGATT
B26: CUCGCCC (DNA:RNA)
RNA: B6 RNA with G25C, G26U, G27C, U31C
DNA 1: CAATCTGAATTCCGGTCTCCC
DNA 2: TGGTGGCTACGACGGGATT
B27: AGCUUCU (DNA:RNA)
RNA: B6 RNA with G25A, G27C, G28U, C29U
DNA 1: CAATCTGAATTCCGGTCTCCC
DNA 2: TGGTGGCTACGACGGGATT
B28: AACAUUA (DNA:RNA)
RNA: B11 RNA with C25A, A27C, U28A, G29U, G30U, C31A
DNA 1: CAATCTGAATTCCGGTCTCCC
DNA 2: TGGTGGCTACGACGGGATT
B29: UAUCGCG (DNA:RNA)
RNA: B1 RNA with C26A, U29G, A30C
DNA 1: CAATCTGAATTCCGGTCTCCC
DNA 2: TGGTGGCTACGACGGGATT
B30: AAGCCGC (DNA:RNA)
RNA: B11 RNA with C25A, A27G, U28C, G29C
DNA 1: CAATCTGAATTCCGGTCTCCC
DNA 2: TGGTGGCTACGACGGGATT
B31: AGGUACU (DNA:RNA)
RNA: B6 RNA with G25A, G28U, C29A
DNA 1: CAATCTGAATTCCGGTCTCCC
DNA 2: TGGTGGCTACGACGGGATT

Each binder was assayed against T1, RBFOX1 RRM RbFoxmut (Fox-RRM*) (assay: EMSA; HiTS-Eq, 1 nM pool, 10 min; buffer printed only for the single-RNA assays: 10 mM Tris pH 7.5, 150 mM NaCl, 3.4 mM EDTA, 0.001% NP-40, 30 C). Settings: tags: His6 N-terminal (pET28a); label: 5' 32P.
Method in brief: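 These values rest on relative association constants, computed from read-count changes of each RNA species versus the control reaction and normalised to the cognate motif. Reads came from free RNA recovered by 8% native PAGE after purified RbFox RRM (wild type or mutant) at increasing concentrations was equilibrated for 10 min in 50 µL with 1 nM of a 5′-radiolabelled pool with 7 randomized nucleotides and DNA-annealed flanks.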
With B1 the binding signal was 0.0937 KA relative to UGCAUGU. In the case of B2, the binding signal is reported as 0.0671 KA relative to UGCAUGU. For B3, the binding signal was 0.0965 KA relative to UGCAUGU. B4 was tested, and the binding signal was 0.125 KA relative to UGCAUGU. In the case of B5, the binding signal is reported as 0.0923 KA relative to UGCAUGU. For B6, the binding signal was 0.118 KA relative to UGCAUGU. With B7 the binding signal was 0.126 KA relative to UGCAUGU. B8 was tested, and the binding signal was 0.167 KA relative to UGCAUGU. In the case of B9, the binding signal is reported as 0.132 KA relative to UGCAUGU. With B10 the binding signal was 0.0764 KA relative to UGCAUGU. For B11, the binding signal was 0.102 KA relative to UGCAUGU. With B12 the binding signal was 0.0833 KA relative to UGCAUGU. In the case of B13, the binding signal is reported as 0.135 KA relative to UGCAUGU. B14 was tested, and the binding signal was 0.0569 KA relative to UGCAUGU. In the case of B15, the binding signal is reported as 0.0922 KA relative to UGCAUGU. For B16, the binding signal was 0.107 KA relative to UGCAUGU. With B17 the binding signal was 0.0996 KA relative to UGCAUGU. In the case of B18, the binding signal is reported as 0.0963 KA relative to UGCAUGU. For B19, the binding signal was 0.0967 KA relative to UGCAUGU. B20 was tested, and the binding signal was 0.0721 KA relative to UGCAUGU. In the case of B21, the binding signal is reported as 0.157 KA relative to UGCAUGU. B22 was tested, and the binding signal was 0.0965 KA relative to UGCAUGU. B23 was tested, and the binding signal was 0.0979 KA relative to UGCAUGU. With B24 the binding signal was 0.0797 KA relative to UGCAUGU. With B25 the binding signal was 0.0953 KA relative to UGCAUGU. In the case of B26, the binding signal is reported as 0.0592 KA relative to UGCAUGU. With B27 the binding signal was 0.0723 KA relative to UGCAUGU. B28 was tested, and the binding signal was 0.0832 KA relative to UGCAUGU. For B29, the binding signal was 0.089 KA relative to UGCAUGU. In the case of B30, the binding signal is reported as 0.097 KA relative to UGCAUGU. In the case of B31, the binding signal is reported as 0.0852 KA relative to UGCAUGU.
